# According to the supplement of paper PMC3724861:
# This is one part of the list.
# Test system: T1, Caupolican (Caup) homeodomain DNA-binding domain
# T1 sequence: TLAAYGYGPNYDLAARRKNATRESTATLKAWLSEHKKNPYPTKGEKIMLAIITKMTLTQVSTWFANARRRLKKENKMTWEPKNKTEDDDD
# Assay: PBM E-score (8-mer, recovered from the published 9-mer minima) (E-score (dimensionless, -0.5 to 0.5)); Drosophila protein; higher = stronger relative binding preference, active = 0.31 or more
# Method in brief: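 Caup's homeodomain DNA-binding domain (residues 214-303) was produced by in vitro transcription and translation and applied at 100 nM to custom-designed protein binding microarrays. Each value is an enrichment score giving relative binding preference for a short DNA word; higher means stronger. Published 9-mer scores were the minimum of their two constituent 8-mer scores, and the 8-mer values were recovered from those minima. A cutoff of 0.31 marks candidate binding sequences.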
row,Sequence,PBM E-score
1,ATCTGTCA,inactive: 0.151
2,AACCGAAT,inactive: 0.0717
3,CGGGTGGA,inactive: -0.134
4,TCGGTTAA,inactive: 0.0121
5,ACGCCGAC,inactive: -0.0675
6,AAATATCC,inactive: 0.062
7,CTGCGAGC,inactive: -0.145
8,ACTGAGAC,inactive: 0.0401
9,ATGGCTTC,inactive: -0.0417
10,ATTACGCC,inactive: -0.029
11,ATGCCGAG,inactive: 0.0061
12,CCGGCTCA,inactive: -0.123
13,GTAAATTA,inactive: 0.198
14,CAGGCCGC,inactive: -0.255
15,ACCTTCAG,inactive: -0.0653
16,ACAGACTA,inactive: 0.0883
17,ACCAGAAG,inactive: 0.0587
18,TGGTTACA,inactive: 0.267
19,ATACCTTC,inactive: 0.0341
20,CACACGAA,inactive: 0.0926
21,CTTCTTTA,inactive: -0.00368
22,AAACCCGC,inactive: -0.125
23,CGTATGAA,inactive: 0.0471
24,ATGCAATC,inactive: 0.105
25,ATTCCAAT,inactive: 0.0698

row,Sequence,PBM E-score
1,AAGGCGCG,inactive: -0.205
2,AGAATGGG,inactive: -0.0878
3,AAACGGTC,inactive: -0.068
4,CCTATGGC,inactive: -0.138
5,AACGAAGA,inactive: -0.00414
6,CTCCTTGC,inactive: -0.108
7,GGCCGAAA,inactive: -0.0199
8,AAAACGTG,inactive: 0.0311
9,AAGATCGG,inactive: -0.197
10,GCGGTAAC,inactive: 0.0415
11,ACTCAGGA,inactive: -0.0584
12,GCCGCGCA,inactive: -0.289
13,AATCCCGT,inactive: 0.11
14,TCGTAACA,inactive: 0.295
15,GATGTAAA,inactive: 0.305
16,GGCCGCAC,inactive: -0.215
17,AGGATCTA,inactive: -0.0004
18,GGAAAAGA,inactive: 0.0764
19,ATTACGGA,inactive: 0.0876
20,CACTAAAA,inactive: 0.00931
21,CGTTAAAC,inactive: 0.116
22,CCCTTAGC,inactive: -0.228
23,AGGGAAAC,inactive: -0.098
24,ATGGAACA,inactive: 0.263
25,AGAGGTAA,inactive: 0.00183

row,Sequence,PBM E-score
1,GATCCGAA,inactive: -0.0353
2,TATGATCA,inactive: 0.167
3,AAAGGTAA,inactive: 0.0668
4,ATAACAAG,active: ≥ 0.373
5,TCTTTCCA,inactive: -0.0573
6,CCAGCCCG,inactive: -0.241
7,CCTACAGG,inactive: -0.0711
8,ATATTTGG,inactive: 0.122
9,GACTACGC,inactive: -0.0482
10,ACTATCCG,inactive: 0.0872
11,CTCCGGAA,inactive: -0.126
12,AATTCAAC,inactive: 0.0988
13,CGATGGAC,inactive: 0.00441
14,CACCGGCC,inactive: -0.176
15,GGGCAGAC,inactive: -0.216
16,CTCACTGA,inactive: -0.0918
17,CAAAAGAG,inactive: -0.0329
18,AATCGGCA,inactive: -0.0218
19,ACTTTCGA,inactive: -0.0323
20,GCGTACGC,inactive: -0.112
21,AAAAGTTA,inactive: 0.0938
22,GGCAGTGA,inactive: -0.149
23,CGAACGGC,inactive: -0.138
24,ATTGAATA,inactive: 0.166
25,ATTAGACG,inactive: -0.0112

row,Sequence,PBM E-score
1,GAGCAACC,inactive: -0.0086
2,GGCTGTGA,inactive: -0.0365
3,AACGAGGC,inactive: -0.0558
4,AAAGTTGT,inactive: 0.17
5,AGTAGGGG,inactive: -0.0773
6,AGTCTTCA,inactive: -0.0246
7,ATCCACAG,inactive: 0.0805
8,ATTATGAG,inactive: 0.0589
9,CTGCGTTA,inactive: -0.0927
10,AACCAAAT,inactive: 0.0931
11,GATTGCCA,inactive: -0.0923
12,GGAGACCC,inactive: -0.185
13,ATAGACAT,active: 0.321
14,CTTCGGCC,inactive: -0.184
15,GCATGACA,inactive: 0.21
16,GATTTAGC,inactive: -0.028
17,TCCAGTCA,inactive: -0.102
18,AGGATGTG,inactive: 0.0836
19,ACGGGCCG,inactive: -0.194
20,CGGCTGCC,inactive: -0.224
21,AGCGTAAT,≥ 0.076
22,TAAACCAA,inactive: 0.0726
23,ATTTACTC,inactive: 0.089
24,CATGTATC,active: 0.408
25,GCCCTTCA,inactive: -0.139

row,Sequence,PBM E-score
1,TGCTTAAA,inactive: 0.0562
2,AGGTCGGA,inactive: -0.0713
3,AGAACATG,active: 0.406
4,GACGTCCC,inactive: -0.115
5,CGGTATCA,inactive: 0.116
6,CCAACGGG,inactive: -0.138
7,AATGAAGA,inactive: 0.0411
8,GGCCCGCA,inactive: -0.246
9,CCTTCCAG,inactive: -0.176
10,AGATGCCA,inactive: -0.0951
11,CTTATCTA,inactive: 0.0324
12,ATGCGAAA,inactive: 0.0128
13,AGTGGGAC,inactive: 0.0245
14,ATAAGTAG,inactive: 0.12
15,ACACAGGT,inactive: 0.208
16,CACAAGGG,inactive: -0.00024
17,AGGTGGCC,inactive: -0.286
18,AGCCGCGC,inactive: -0.217
19,AGAGCGTG,inactive: -0.0713
20,CCATGACC,inactive: -0.0875
21,GAGTCTTA,inactive: -0.00861
22,GGTCTCCA,inactive: -0.147
23,CCTTGACG,inactive: -0.172
24,AATTACGA,inactive: 0.15
25,CTGCTCCA,inactive: -0.0249

row,Sequence,PBM E-score
1,TCGTCGAA,≥ 0.0548
2,AGCTTTTG,inactive: -0.0319
3,GTTCTAGA,inactive: 0.0782
4,GCCACCAA,inactive: -0.183
5,CACACCAA,inactive: 0.0617
6,ATGTCATA,active: 0.4
7,AATCGACA,inactive: 0.254
8,ATTGCGAG,inactive: -0.11
9,AGCTACCT,inactive: -0.00471
10,TCTGGGAA,inactive: -0.0866
11,TATTTTCA,inactive: 0.11
12,ACTCGTCG,inactive: -0.00807
13,CAATGCGG,inactive: -0.101
14,AAGTATAG,inactive: -0.0316
15,CCTAGTTC,inactive: -0.0119
16,ACTCAGGG,inactive: -0.0697
17,CGAGCGCG,inactive: -0.161
18,GGACACAC,inactive: 0.162
19,CACTAGGG,inactive: -0.165
20,AGTACAAC,inactive: 0.275
21,ATTTTCAA,inactive: 0.0067
22,ACATAGAA,inactive: 0.249
23,CCAGATCG,inactive: -0.0534
24,CGCAACAG,inactive: -0.0246
25,CCCACTTA,inactive: -0.063

row,Sequence,PBM E-score
1,CGTTCCGC,inactive: -0.0996
2,GCTCCCAC,inactive: -0.209
3,AGCTGCCA,inactive: -0.108
4,CAAACTAC,inactive: 0.207
5,CAGCCCTG,inactive: -0.154
6,ACTTCCTC,inactive: -0.0868
7,CTGGATTC,inactive: 0.0143
8,CTTTGATC,inactive: -0.0179
9,CACTAAAG,inactive: -0.125
10,TAAAGGTA,inactive: 0.0487
11,ATTACAAC,active: 0.37
12,ATACCTCA,inactive: 0.0223
13,CAGCGGAC,inactive: -0.187
14,AAGACAAA,inactive: 0.061
15,AGATTGTG,inactive: 0.0711
16,ATTTGCTC,inactive: 0.0542
17,CAGCTACC,inactive: -0.0456
18,CAATCCGG,inactive: -0.0921
19,ATTGCTCA,inactive: 0.0739
20,AACTGCAC,inactive: -0.00808
21,AACAGCTG,inactive: 0.0661
22,GCTGAAGA,inactive: -0.0212
23,AGAGAAAG,inactive: -0.103
24,CGACGCAG,inactive: -0.075
25,TCCCGTAA,inactive: -0.00085

row,Sequence,PBM E-score
1,ATGTCAGG,inactive: 0.209
2,CCCGAGGA,inactive: -0.126
3,ATTGTTTC,inactive: 0.143
4,CCACTTCG,inactive: -0.151
5,CAACTGTA,inactive: 0.183
6,GCTTTCGA,inactive: -0.13
7,AGTACACA,active: 0.342
8,TCTCGACA,inactive: 0.133
9,CTGGTTTA,inactive: 0.0707
10,CACCTAAC,inactive: -0.0298
11,CAAAGCAG,inactive: -0.0771
12,AAAGCCCC,inactive: -0.238
13,CTCTGTGC,inactive: -0.0962
14,CAAAAGAA,inactive: 0.0424
15,CCATGCTC,inactive: -0.00716
16,CTTGTCTC,inactive: 0.139
17,CAAGATTA,inactive: 0.131
18,CGGTGTTC,inactive: 0.157
19,CTTTGATA,inactive: 0.0524
20,AGGAGGAG,inactive: -0.188
21,ACAGGCGT,inactive: -0.013
22,ACTTATAT,≥ 0.176
23,ATCTTTAA,inactive: 0.00575
24,AAACTTTC,inactive: -0.0217
25,AAGGAGCC,inactive: -0.22

row,Sequence,PBM E-score
1,AGGGGCGC,inactive: -0.248
2,AAACAATC,inactive: 0.115
3,ATCAGAGG,inactive: -0.0911
4,ACGTGAGG,inactive: -0.00217
5,ATTAATGA,inactive: 0.184
6,CGCTTGAA,inactive: 0.0019
7,CAATCCCA,inactive: -0.0862
8,ATACATGG,active: 0.422
9,ATGCTGGG,inactive: -0.069
10,GAGATGCA,inactive: -0.024
11,GGTACGAA,inactive: 0.0381
12,AGGCGAAT,inactive: -0.0418
13,GCTCACAC,inactive: -0.0528
14,ATCGTGTC,active: 0.336
15,CAGAGAAA,inactive: 0.0855
16,AAGTCGGC,inactive: -0.165
17,ACCAGTCG,inactive: 0.0254
18,AATTTACG,inactive: 0.0825
19,AGCGTGTG,inactive: 0.165
20,CAACGACG,inactive: 0.0887
21,ATAAACGA,inactive: 0.136
22,ACGAAAGG,inactive: -0.0255
